Source: the supplement of paper PMC4967469

Tests used:
Assay in all cases: Viability of human cancer cell lines after 72 h of drug (GDSC screen)
Dimethyloxalylglycine = compound: COC(=O)CNC(=O)C(=O)OC [Dimethyloxalylglycine]; conditions: top dose 4000 µM; top dose inferred
Method: (§1)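 Human cancer cell lines in 384-well plates, medium with 10% serum, drug for 72 h over a 256-fold dose range (nine 2-fold or five 4-fold steps up to the top dose). Adherent lines were fixed and stained with the nucleic acid dye Syto60, suspension lines read with resazurin; signal relative to control wells, capped at 0 and 100%. One two-parameter sigmoid per drug and line, fitted in a mixed model over all curves with the slope shared within a line.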

17-AAG = compound: C=CCNC1=C2C[C@@H](C)C[C@H](OC)[C@H](O)[C@@H](C)/C=C(\C)[C@H](OC(N)=O)[C@@H](OC)/C=C\C=C(/C)C(=O)NC(=CC1=O)C2=O [17-AAG]; conditions: top dose 1 µM
Method: as §1

BIX02189 = compound: CN(C)Cc1cccc(N=C(c2ccccc2)c2c(O)[nH]c3cc(C(=O)N(C)C)ccc23)c1 [BIX02189]; conditions: top dose 20 µM; top dose inferred
Method: as §1

Doxorubicin = compound: COc1cccc2c1C(=O)c1c(O)c3c(c(O)c1C2=O)C[C@@](O)(C(=O)CO)C[C@@H]3O[C@H]1C[C@H](N)[C@H](O)[C@H](C)O1 [Doxorubicin]; conditions: top dose 1.024 µM
Method: as §1

UNC1215 = compound: O=C(c1ccc(C(=O)N2CCC(N3CCCC3)CC2)c(Nc2ccccc2)c1)N1CCC(N2CCCC2)CC1 [UNC1215]; conditions: top dose 1 µM; top dose inferred
Method: as §1

OSI-027 = compound: COc1cccc2cc(-c3nc([C@H]4CC[C@H](C(=O)O)CC4)n4ncnc(N)c34)[nH]c12 [OSI-027]; conditions: top dose 20 µM
Method: as §1

Vismodegib = compound: CS(=O)(=O)c1ccc(C(=O)Nc2ccc(Cl)c(-c3ccccn3)c2)c(Cl)c1 [Vismodegib]; conditions: top dose 10 µM; top dose inferred
Method: as §1

TG101348 = compound: Cc1cnc(Nc2ccc(OCCN3CCCC3)cc2)nc1Nc1cccc(S(=O)(=O)NC(C)(C)C)c1 [TG101348]; conditions: top dose 10.24 µM
Method: as §1

CCT018159 = compound: CCc1cc(-c2n[nH]c(C)c2-c2ccc3c(c2)OCCO3)c(O)cc1O [CCT018159]; conditions: top dose 10 µM; top dose inferred
Method: as §1

VX-11e = compound: Cc1cnc(Nc2ccc(F)cc2Cl)nc1-c1c[nH]c(C(=O)N[C@H](CO)c2cccc(Cl)c2)c1 [VX-11e]; conditions: top dose 5.12 µM; top dose inferred
Method: as §1

| Cell Line | AUC (Dimethyloxalylglycine) | IC50 (Dimethyloxalylglycine) [µM] | AUC (17-AAG) | IC50 (17-AAG) [µM] | AUC (BIX02189) | IC50 (BIX02189) [µM] | AUC (Doxorubicin) | IC50 (Doxorubicin) [µM] | AUC (UNC1215) | IC50 (UNC1215) [µM] | AUC (OSI-027) | IC50 (OSI-027) [µM] | AUC (Vismodegib) | IC50 (Vismodegib) [µM] | AUC (TG101348) | IC50 (TG101348) [µM] | AUC (CCT018159) | IC50 (CCT018159) [µM] | AUC (VX-11e) | IC50 (VX-11e) [µM] |
| --- | --- | --- | --- | --- | --- | --- | --- | --- | --- | --- | --- | --- | --- | --- | --- | --- | --- | --- | --- | --- |
| Ca-Ski (cervix, adherent) | 0.459 | 191 | 0.689 | 0.226 | 0.902 | > 20 | 0.458 | 0.0485 | 0.978 | > 1 | 0.195 | 0.135 | 0.962 | > 10 | 0.657 | 1.85 | 0.843 | 8.4 | 0.961 | > 5.12 |
| L-363 (myeloma, suspension) | 0.405 | 143 | 0.849 | 0.602 | 0.945 | > 20 | 0.757 | 0.309 | 0.99 | > 1 | 0.37 | 0.579 | 0.967 | > 10 | 0.704 | 2.19 | 0.934 | > 10 | 0.968 | > 5.12 |
| NCI-H358 (lung adenocarcinoma, adherent) | 0.39 | 121 | 0.75 | 0.359 | 0.887 | > 20 | 0.415 | 0.0364 | 0.982 | > 1 | 0.436 | 0.821 | 0.983 | > 10 | 0.73 | 3.15 | 0.9 | > 10 | 0.793 | 2.64 |
| NCI-H3122 (lung adenocarcinoma, adherent) | 0.548 | 338 | 0.295 | 0.0162 | 0.974 | > 20 | 0.401 | 0.034 | 0.985 | > 1 | 0.522 | 1.44 | 0.987 | > 10 | 0.922 | > 10.2 | 0.674 | 1.95 | 0.886 | > 5.12 |
| Detroit562 (head and neck, adherent) | 0.613 | 504 | 0.467 | 0.051 | 0.988 | > 20 | 0.699 | 0.226 | 0.987 | > 1 | 0.936 | > 20 | 0.981 | > 10 | 0.952 | > 10.2 | 0.847 | 6.92 | 0.985 | > 5.12 |
| NCI-H2342 (lung adenocarcinoma, adherent) | 0.39 | 121 | 0.949 | > 1 | 0.96 | > 20 | 0.424 | 0.0389 | 0.984 | > 1 | 0.921 | > 20 | 0.986 | > 10 | 0.976 | > 10.2 | 0.96 | > 10 | 0.975 | > 5.12 |
| HN (head and neck, adherent) | 0.829 | 2290 | 0.47 | 0.0519 | 0.989 | > 20 | 0.769 | 0.364 | 0.978 | > 1 | 0.982 | > 20 | 0.933 | > 10 | 0.96 | > 10.2 | 0.831 | 5.8 | 0.989 | > 5.12 |
| CPC-N (small cell lung carcinoma, suspension) | 0.745 | 1360 | 0.984 | > 1 | 0.956 | > 20 | 0.513 | 0.0695 | 0.974 | > 1 | 0.474 | 1.06 | 0.937 | > 10 | 0.738 | 3.3 | 0.92 | > 10 | 0.977 | > 5.12 |
| EW-18 (Ewing sarcoma, suspension) | 0.707 | 1010 | 0.966 | > 1 | 0.879 | > 20 | 0.725 | 0.293 | 0.976 | > 1 | 0.206 | 0.157 | 0.911 | > 10 | 0.627 | 1.47 | 0.962 | > 10 | 0.969 | > 5.12 |
| KON (head and neck, adherent) | 0.483 | 225 | 0.305 | 0.0179 | 0.987 | > 20 | 0.409 | 0.0362 | 0.982 | > 1 | 0.961 | > 20 | 0.977 | > 10 | 0.942 | > 10.2 | 0.838 | 6.54 | 0.984 | > 5.12 |
| NCI-H2135 (non-small cell lung carcinoma, adherent) | 0.603 | 474 | 0.991 | > 1 | 0.895 | > 20 | 0.683 | 0.204 | 0.99 | > 1 | 0.432 | 0.822 | 0.988 | > 10 | 0.873 | 9.3 | 0.986 | > 10 | 0.437 | 0.216 |
| NKM-1 (acute myeloid leukaemia, suspension) | 0.393 | – | 0.668 | 0.187 | 0.829 | 13 | 0.374 | 0.0284 | 0.957 | > 1 | 0.118 | < 0.0781 | 0.928 | > 10 | 0.39 | 0.316 | 0.824 | 6.17 | 0.882 | > 5.12 |
| HCC2157 (breast, suspension) | 0.87 | > 4000 | 0.572 | 0.0992 | 0.987 | > 20 | 0.498 | 0.0633 | 0.969 | > 1 | 0.628 | 2.87 | 0.935 | > 10 | 0.823 | 6.41 | 0.816 | 5.87 | 0.987 | > 5.12 |
| YAPC (pancreas, adherent) | 0.848 | > 4000 | 0.754 | 0.414 | 0.966 | > 20 | 0.92 | > 1.02 | 0.982 | > 1 | 0.921 | > 20 | 0.984 | > 10 | 0.949 | > 10.2 | 0.943 | > 10 | 0.967 | > 5.12 |
| BFTC-905 (bladder, adherent) | 0.654 | 624 | 0.784 | 0.363 | 0.978 | > 20 | 0.262 | 0.0151 | 0.99 | > 1 | 0.651 | 3.06 | 0.959 | > 10 | 0.862 | 6.82 | 0.939 | > 10 | 0.82 | 2.42 |
| AM-38 (glioma, semi-adherent) | 0.656 | 684 | 0.712 | 0.252 | 0.917 | > 20 | 0.755 | 0.355 | 0.983 | > 1 | 0.322 | 0.394 | 0.986 | > 10 | 0.865 | 9.39 | 0.918 | > 10 | 0.781 | 2.18 |
| GDM-1 (acute myeloid leukaemia, suspension) | 0.381 | – | 0.95 | > 1 | 0.325 | 0.417 | 0.646 | – | 0.984 | > 1 | 0.085 | < 0.0781 | 0.987 | > 10 | 0.383 | 0.309 | 0.91 | > 10 | 0.856 | 3.86 |
| YKG-1 (glioma, adherent) | 0.639 | 609 | 0.502 | 0.0631 | 0.983 | > 20 | 0.353 | 0.0248 | 0.985 | > 1 | 0.394 | 0.639 | 0.959 | > 10 | 0.885 | > 10.2 | 0.826 | 6.16 | 0.968 | > 5.12 |
| CAL-72 (osteosarcoma, adherent) | 0.543 | 334 | 0.902 | > 1 | 0.984 | > 20 | 0.721 | 0.307 | 0.982 | > 1 | 0.984 | > 20 | 0.965 | > 10 | 0.984 | > 10.2 | 0.884 | > 10 | 0.984 | > 5.12 |
| DK-MG (glioma, adherent) | 0.631 | 688 | 0.708 | 0.328 | 0.913 | > 20 | 0.97 | > 1.02 | 0.975 | > 1 | 0.817 | 19.2 | 0.975 | > 10 | 0.374 | 0.243 | 0.95 | > 10 | 0.921 | > 5.12 |
| NU-DUL-1 (B-cell lymphoma, suspension) | 0.445 | 183 | 0.993 | > 1 | 0.653 | 3.02 | 0.427 | 0.0421 | 0.985 | > 1 | 0.031 | < 0.0781 | 0.975 | > 10 | 0.644 | 1.47 | 0.954 | > 10 | 0.911 | 4.8 |
| MOLP-8 (myeloma, suspension) | 0.342 | 92.5 | 0.948 | > 1 | 0.85 | 14.2 | 0.533 | 0.0787 | 0.984 | > 1 | 0.097 | < 0.0781 | 0.986 | > 10 | 0.382 | 0.307 | 0.932 | > 10 | 0.744 | 1.55 |
| KP-3 (pancreas, adherent) | 0.492 | 236 | 0.727 | 0.317 | 0.913 | > 20 | 0.71 | 0.283 | 0.982 | > 1 | 0.702 | 5.22 | 0.984 | > 10 | 0.781 | 5.13 | 0.861 | > 10 | 0.946 | > 5.12 |

A lower IC50 marks a more sensitive line; a fit beyond the top or the lowest dose is shown as a bound at that dose. AUC is the area under the same curve over the 256-fold range up to the top dose, as a fraction; it is 1 without any effect and falls as sensitivity rises. For some of these results: The top dose, if marked as inferred, comes from the curve model; the source does not state it.
